Measured values from the supplement of paper PMC3334620.
In all, about 33,000 sequences were measured (“E-score (-0.5 to 0.5)”: median about -0.056, highest 2% from about 0.38 on). This is one part of the list.

Molecular target: Stb4 (UniProt P50104)
Assay: PBM E-score (8-mer binding enrichment) (E-score (-0.5 to 0.5)); higher = stronger / more preferred TF binding; most listed sequences are background and not binding sites
Conditions: protein concentration: 200 nM; construct: GST-DNA-binding domain
How it was run: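 E-scores (a modified Wilcoxon-Mann-Whitney statistic) were assigned by the Universal PBM Analysis Suite to every ungapped eight-base word pooled with its reverse complement. The input came from universal all-10-mer Agilent arrays made double-stranded by primer extension and probed with GST-tagged yeast transcription factors at about 100-200 nM. Fluorescent anti-GST detected bound protein, and masliner normalised the scans.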

Row | Sequence | PBM E-score
1 | ACCCCCCG | 0.147
2 | ACTATTTC | -0.0167
3 | ACAAGCTC | 0.0522
4 | CGAAGGAC | 0.139
5 | CACTGTCG | 0.057
6 | GGCCAGCC | -0.0538
7 | AATCAGAA | 0.0584
8 | GGACTGAC | 0.00322
9 | ATCTCCAT | -0.184
10 | AATTTGAG | -0.0746
11 | ATTTATTA | -0.025
12 | TTTGAAAA | -0.166
13 | AGGGGTAA | -0.254
14 | AACACCGG | 0.248
15 | CGAGGCGC | 0.155
16 | AACCGGGG | 0.164
17 | GACGCGCA | -0.0515
18 | AATGACGC | -0.238
19 | AGTGAGCA | -0.114
20 | ATCGAGAG | -0.194
21 | CGAACCGC | 0.0494
22 | TATCATAA | -0.112
23 | CGACGCGC | 0.112
24 | AGAGCGTA | -0.258
25 | CTTGTGCA | -0.129

Row | Sequence | PBM E-score
26 | ACCCTACC | 0.0725
27 | TACGATGA | -0.101
28 | CCTGTAGC | -0.23
29 | CTCTGGGC | -0.184
30 | GCCTTAAC | -0.196
31 | ACAGTTTA | -0.209
32 | GGGGATAC | -0.0133
33 | CAAGTCAC | -0.149
34 | GAGCACCC | 0.123
35 | CAGATTTC | -0.0451
36 | GCGCACAC | 0.0106
37 | CGCAACGC | 0.0134
38 | CCTCGATA | -0.048
39 | AACAAACG | -0.171
40 | GCTTCCTA | -0.0701
41 | AGTCTGGA | -0.209
42 | TCTCTACA | -0.163
43 | GCGGTCCC | 0.113
44 | ATGAAAGC | 0.0338
45 | AGGCACGA | -0.19
46 | CAGAGAAC | -0.197
47 | TTAGGGAA | -0.262
48 | CGGATTAC | 0.201
49 | CACGCCTA | -0.262
50 | CCTAGAGC | -0.0811

Row | Sequence | PBM E-score
51 | GGCTTTCA | 0.0635
52 | CGTTGGAG | -0.232
53 | GTTTCACA | -0.171
54 | GACTGCCA | -0.149
55 | GCCGCCCA | 0.0651
56 | ACGTGCCC | -0.0194
57 | AGTCAAAG | -0.034
58 | ACGCACAA | -0.182
59 | AATGAAGG | -0.254
60 | AGGAATGG | -0.23
61 | GATCATAC | -0.0525
62 | AGACTTCC | 0.144
63 | CGACCTAG | -0.0164
64 | AATACACC | 0.0448
65 | ATAACGTC | -0.077
66 | GCTTGAAA | -0.0142
67 | GCGCTTCC | 0.206
68 | GCCCCAAA | -0.232
69 | GGCAGACA | 0.124
70 | TCGCTTCA | -0.0932
71 | CTTTGTCA | -0.168
72 | ACCGCAAG | 0.101
73 | ATTGACTC | 0.0397
74 | ATGTTCGA | -0.112
75 | GTCAGGGA | -0.081

Row | Sequence | PBM E-score
76 | TACGGATA | 0.385
77 | GCTCGGTA | 0.416
78 | AGCATAAC | -0.119
79 | ATACAAGC | -0.0427
80 | CGACTGGC | 0.0876
81 | ACATGTGA | -0.247
82 | CAGGGTGG | -0.251
83 | CTGTTGAC | -0.242
84 | ACTTTATA | 0.0827
85 | CAAAATAA | -0.0484
86 | ACGTCCTC | -0.144
87 | AGATACGC | -0.0363
88 | GATGACCA | -0.108
89 | ATTCTACC | 0.0527
90 | CACATATC | -0.0483
91 | ATCTGAGA | -0.0638
92 | GGCCCCTA | -0.0463
93 | CTTTAGCC | 0.172
94 | CTGTGAAC | -0.137
95 | CGTTCGTC | -0.0301
96 | ATAGTGGA | -0.0464
97 | CATCGTGA | -0.134
98 | GAGATGCC | 0.0539
99 | ATCAATAC | -0.17
100 | GACAACGA | -0.0453

Row | Sequence | PBM E-score
101 | TAGGTCGA | -0.13
102 | CCCTTATC | -0.0435
103 | ACAAACGG | 0.187
104 | AGAGCTCC | -0.0492
105 | GTAGGCTA | -0.23
106 | ATACAACA | -0.219
107 | ATCGGCAG | 0.321
108 | ACTCACTA | -0.0905
109 | AAGAGTAG | -0.0478
110 | ACATTCGC | -0.0892
111 | AAGCGCGT | -0.0061
112 | TGAGGAAA | -0.0691
113 | CGTGAAGC | -0.0811
114 | ACCAACGT | -0.0953
115 | AAGTGGGT | -0.0789
116 | ATGAAAAA | 0.0997
117 | AAGGACGC | -0.102
118 | AGTTTCAG | -0.0891
119 | ACCGGTCT | -0.11
120 | ACGGCTAC | 0.249
121 | CCGGACCC | 0.303
122 | CAGTTAAG | -0.0574
123 | AAGGGGAC | -0.0934
124 | ACATGCGC | -0.0782
125 | AATAAATT | -0.0542

Row | Sequence | PBM E-score
126 | TGCTATAA | -0.0519
127 | GTAATCTA | 0.0719
128 | CACCATGG | -0.29
129 | ACGCGCTC | -0.0789
130 | ATCTACAA | -0.164
131 | AGCCTAAA | -0.227
132 | ATCAGGTA | -0.0642
133 | CCCTGTCG | -0.0338
134 | AAGTGGAC | -0.0959
135 | ATAGTGAG | -0.215
136 | CACATGCA | -0.166
137 | ATACAGAC | -0.134
138 | ATAGAGAC | -0.16
139 | GTAGATCA | 0.0459
140 | GAGATAAC | -0.0742
141 | CGAGTAGC | 0.192
142 | GTAAGTAA | 0.0969
143 | TGAAGTAA | -0.0839
144 | AAAAGATC | -0.0074
145 | AGCGCCAC | -0.135
146 | ATCAGGAG | -0.0915
147 | GAGCTCCC | 0.0963
148 | ACTTAACC | 0.0933
149 | CGGCGACC | 0.235
150 | AGCTTCAC | -0.221

Row | Sequence | PBM E-score
151 | CTTATTCC | 0.151
152 | TACCTGGA | -0.0158
153 | GCAATCAA | -0.142
154 | ATTACCCC | 0.133
155 | CCGCGACA | 0.106
156 | CTAAATAA | -0.0476
157 | TACAATGA | -0.264
158 | GGTGAGGA | -0.0535
159 | AAGCACGT | -0.0987
160 | CGGTCATA | 0.0682
161 | ATTTGGAC | -0.0985
162 | GCTACTAC | 0.0879
163 | TAGCAAGA | -0.146
164 | GTCCTGAA | -0.197
165 | AATCCAGA | -0.0418
166 | ATGCGGCG | 0.0381
167 | CAGAAGAA | -0.167
168 | AAACTGTT | -0.0354
169 | AACTCGTG | 0.0628
170 | CTGGACAC | -0.0889
171 | AACATTCT | -0.0796
172 | AGCAACTG | -0.0213
